{
  "source": "PubChem BioAssay AID686978",
  "about": "(National Center for Advancing Translational Sciences (NCATS), 2013)",
  "note": "The whole screen tested about 420,000 compounds, of which about 64,000 (15%) were called active. This list was built around the results that the source calls inconclusive (neither active nor inactive); the mix of calls is not that of the screen. Calls follow the shape of the dose curve; as a rule, active = well fitted inhibition curve with a large enough effect; inconclusive = small, poorly fitted or top-dose-only effect; inactive = flat fitted curve, though single readings scatter. No potency is given beside an inconclusive call; the fits are too rough. % is scaled to controls: 0 for no effect and ±100 for the full control effect; potency is read from the fitted curve at half-maximal effect; tags tell the direction and shape of the fitted curve.",
  "data": [
    {"assay": "qHTS for Inhibitors of human tyrosyl-DNA phosphodiesterase 1 (TDP1): qHTS in cells in absence of CPT; also: nearly all actives have a fitted effect of over 55% in size", "details": "DT40 Tdp1-/- hTDP1 cells, no CPT, ATP luminescence, 48 h; activity change, negative = growth inhibition: at 46.2 µM (top of the series) unless noted", "procedure,_shortened": "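Seeded 400 DT40-hTDP1 cells/well (vehicle DMSO, no 20 nM CPT); pinned compounds; ≥48 hr at 37 °C; CellTiter-Glo luminescence as viability measure.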", "values": [
      {"smiles": "COc1ccc(CCNCC(=O)Nc2ccc(C)c(Br)c2)cc1OC", "Potency": "inconclusive [inhibitor, single point]"},
      {"smiles": "CC(C)NCC(O)COCCOc1ccc(C(C)(C)C)cc1", "note": "(stereo unspecified)", "Potency": "inconclusive [inhibitor, single point]"},
      {"smiles": "Cc1cc(OCC(=O)NC2CC2)c2c(C)c(C)c(=O)oc2c1", "Potency": "inconclusive [inhibitor, single point]"},
      {"smiles": "COC(=O)C(=Cc1ccc(-c2ccsc2C(=O)OC)o1)C(=O)OC", "Potency": "inconclusive [inhibitor, single point]"},
      {"smiles": "CC(=O)C(Cl)C(=O)Nc1ccccc1", "note": "(stereo unspecified)", "Potency": "active: 4.11 µM"},
      {"smiles": "CN(C)C1NC(=O)c2cc(-c3ccccc3)sc2N1", "note": "(stereo unspecified)", "Potency": "inconclusive [inhibitor, single point]"},
      {"smiles": "NC(=O)c1ccsc1NC(=O)C1CCN(S(=O)(=O)c2cccs2)CC1", "Potency": "inconclusive [inhibitor, single point]"},
      {"smiles": "CC(C)c1ccc(-n2nnnc2SCC(=O)NC2CC2)cc1", "Potency": "inconclusive [inhibitor, single point]"},
      {"smiles": "CC1CCc2c(sc3ncnc(N4CCOCC4)c23)C1", "note": "(stereo unspecified)", "Potency": "inconclusive [inhibitor, single point]"},
      {"smiles": "c1ccc(-c2noc(CSc3nnnn3-c3ccccc3)n2)cc1", "Potency": "inconclusive [inhibitor, single point]"},
      {"smiles": "CC(OC(=O)c1ccccc1NCc1ccco1)C(=O)Nc1ncc(Cl)cc1Cl", "note": "(stereo unspecified)", "Potency": "inconclusive [inhibitor, partial curve]"},
      {"smiles": "CCOc1ccc(C(C)=O)cc1CN1C(=O)NC2(CCCCCCC2)C1=O", "Potency": "inconclusive [inhibitor, partial curve]"},
      {"smiles": "CCN(CC(=O)Nc1ccc(NC(C)=O)cc1)C(=O)c1ccccc1Sc1ccccc1C#N", "Potency": "inconclusive [inhibitor, partial curve]"},
      {"smiles": "CN(C)/C=C/C(=O)c1ccc(N2CCN(c3ncc(C(F)(F)F)cc3Cl)CC2)cc1", "Potency": "inconclusive [inhibitor, single point]"},
      {"smiles": "CCOC(=O)C1CCN(S(=O)(=O)c2ccc3c(c2)CC(=O)N3)CC1", "activity change, negative = growth inhibition": "inactive: 4.61%"},
      {"smiles": "Cc1ccc(CNC(=O)c2ccc3c(c2)c(C)c(C)n3Cc2ccc(Cl)cc2)o1", "Potency": "active: 5.17 µM"},
      {"smiles": "Cc1ccc(NC(=O)CCSc2nnc3ccccn23)cc1", "Potency": "inconclusive [inhibitor, single point]"},
      {"smiles": "COc1ccc(N(C)S(=O)(=O)c2cccc(C(=O)N3CCN(S(=O)(=O)c4ccc(C)cc4)CC3)c2)cc1", "Potency": "inconclusive [inhibitor, single point]"},
      {"smiles": "COc1ccccc1N(C)S(=O)(=O)c1ccc(C(=O)NC2CCCCC2)cc1", "Potency": "inconclusive [inhibitor, single point]"},
      {"smiles": "CCOC(=O)c1ccc(NC(=O)CSc2nnc(CC)o2)cc1", "activity change, negative = growth inhibition": "inactive: 9.36%"},
      {"smiles": "C[C@@H]1CCCCO[C@@H](CN(C)C(=O)Nc2ccccc2)[C@@H](C)CN([C@H](C)CO)C(=O)c2cc(N(C)C)ccc2O1", "activity change, negative = growth inhibition": "inconclusive: -30.8% [inhibitor]"},
      {"smiles": "CCOc1cccc(C2C(C(=O)c3ccc(C)o3)=C(O)C(=O)N2c2nccs2)c1", "note": "(stereo unspecified)", "Potency": "inconclusive [inhibitor, single point]"},
      {"smiles": "CCn1c(Cc2cccs2)nnc1SCC(=O)NC(C)(C)C", "activity change, negative = growth inhibition": "inactive: -6.44%"},
      {"smiles": "CN(C)c1ccc(NC(=O)C[n+]2ccccc2)cc1", "activity change, negative = growth inhibition": "inactive: 8.15%"},
      {"smiles": "CN(C(=O)CSc1nc(-c2ccccc2)cn1N)C(c1ccccc1)c1ccccc1", "Potency": "active: 25.9 µM"},
      {"smiles": "CCN(c1ccccc1)c1cc(C)nc2nc(C)nn12", "activity change, negative = growth inhibition": "inactive: -18%"},
      {"smiles": "COc1cc(-c2cc(OC)c3c(C)oc(C)c3c(=O)c2)ccc1OC(=O)c1cccc(C)c1", "Potency": "active: 13 µM"},
      {"smiles": "CNC(=O)C(=O)NCCN1CCN(S(=O)(=O)c2ccc3ccccc3c2)CC1", "activity change, negative = growth inhibition": "inactive: -2.09%"},
      {"smiles": "CCOc1ccc(CCNC(=O)CN2C(=O)CCSc3ccccc32)cc1OCC", "Potency": "inconclusive [inhibitor, partial curve, poor fit]"},
      {"smiles": "Cc1ccc(-c2noc(-c3ccc(N4CCCC4)c([N+](=O)[O-])c3)n2)cc1", "Potency": "inconclusive [inhibitor, partial curve]"},
      {"smiles": "CC(NN)c1ccccc1", "note": "(stereo unspecified)", "activity change, negative = growth inhibition": "inactive: -11.3%"},
      {"smiles": "CCC(C)Sc1nnc(NC(=O)C2CCN(C(=O)c3ccco3)CC2)s1", "note": "(stereo unspecified)", "Potency": "inconclusive [inhibitor, single point]"},
      {"smiles": "C=CCN(CC=C)Cc1cc(=O)oc2cc(C)cc(C)c12", "Potency": "inconclusive [inhibitor, single point]"},
      {"smiles": "COc1ccc(NC(=O)C(=O)NCC2CCCN2S(=O)(=O)c2cc(C)ccc2C)cc1", "note": "(stereo unspecified)", "Potency": "active: 2.59 µM"},
      {"smiles": "Cc1ccc(S(=O)(=O)NC(C)(C)CN2CCc3ccccc3C2)cc1", "Potency": "inconclusive [inhibitor, single point]"},
      {"smiles": "Cc1ccc(/C(=N\\S(=O)(=O)c2ccc(Br)cc2)Nc2ccccc2C)cc1", "Potency": "inconclusive [inhibitor, single point]"},
      {"smiles": "Cc1ccc(-n2ncc3c(NCc4cccnc4)ncnc32)c(C)c1", "Potency": "active: 5.17 µM"},
      {"smiles": "CCc1cccc(C)c1NC(=O)CSc1nc2ccncc2[nH]1", "Potency": "inconclusive [inhibitor, partial curve, poor fit]"},
      {"smiles": "O=C(c1ccc(CSc2nc3ccncc3[nH]2)cc1)N1CCN(c2cccc(Cl)c2)CC1", "Potency": "active: 7.31 µM"},
      {"smiles": "O=C(NC(=S)NNC(=O)c1cc2ccccc2cc1O)c1ccco1", "Potency": "inconclusive [inhibitor, single point]"},
      {"smiles": "O=C1Nc2cc(C(=O)N3CCOCC3)ccc2S/C1=C\\c1ccccc1", "Potency": "active: 23.1 µM"},
      {"smiles": "NC(=O)C1CCCN(S(=O)(=O)c2ccccc2)C1", "note": "(stereo unspecified)", "activity change, negative = growth inhibition": "inactive: -15.8%"},
      {"smiles": "Cc1c(-c2ccccc2)c(=O)oc2c(CN3CCOCC3)c(O)ccc12", "Potency": "inconclusive [inhibitor, single point]"},
      {"smiles": "O=C(Nc1ccccc1)Nc1ccc(Oc2cccnc2)nc1", "Potency": "active: 16.4 µM"},
      {"smiles": "Cc1cc(C)n(C2CCCCC2OC(=O)CCc2ccccc2)n1", "note": "(stereo unspecified)", "Potency": "inconclusive [inhibitor, single point]"},
      {"smiles": "CCc1ccc(N2CC(C(=O)N3CCN(c4ccc([N+](=O)[O-])cc4)CC3)CC2=O)cc1", "note": "(stereo unspecified)", "activity change, negative = growth inhibition": "inactive: -21.5%"}
    ]}
  ]
}
